From ChEMBL document CHEMBL1157539, “Thousands of chemical starting points for antimalarial lead identification” (Nature, 2010)
In all, about 13,000 compounds were measured (“IFI”: median about 4, highest 2% from about 17 on). The list shows a part of the results.

Assay: GSK_TCMDC: Inhibition Frequency Index (IFI). The number of non-kinase HTS assays where a compound showed > 50 % inhibition, expressed as a percentage of the number of such assays in which the compound was tested (-0 is zero)
Format: functional

Row | Compound | IFI
1 | CCN(CC)Cc1ccc2c(=O)cc(CCc3cccc(F)c3F)n(CC(=O)N(Cc3ccc(-c4ccc(C(F)(F)F)cc4)cc3)C(C)C)c2c1 | 10.3%
2 | CCCc1cc(Cc2cnc(N)nc2N)cc2c1OC(C)C2C (configuration not stated) | 5.26%
3 | O=C(Nc1ccc(Cl)c(Cl)c1)N1CCC(NCc2cccc([N+](=O)[O-])c2)CC1 | 2.88%
4 | Cc1ccc(NC(=O)c2cc(S(=O)(=O)NC(C)(C)C)ccc2C)nc1 | 0%
5 | COc1ccc(-c2nccc(NC(=N)NCc3ccccc3)n2)cc1 | 10.7%
6 | CCC(=O)N[C@@H]1CN[C@@H](C#Cc2cc3c(Nc4ccc(OCc5cccc(F)c5)c(Cl)c4)ncnc3s2)C1 | 1.75%
7 | COc1ccccc1C(C)NCC(=O)Nc1cccc(C(=O)Nc2cccc(C(F)(F)F)c2)c1 (configuration not stated) | 4.08%
8 | CC(C)n1c(C2CCN(CC3CCN(C(=O)/C=C/c4ccc(Cl)c(Cl)c4)CC3)CC2)nc2ccccc21 | 2.82%
9 | COc1ccc(C=Cc2ccc(-c3c(C)[nH]c(C)c(Cl)c3=O)cc2)cc1OC | 0.92%
10 | CCc1cc(Cc2cnc(N)nc2N)cc(CC)c1OC | 0.76%
11 | CC(C)c1ccc(NC(=O)c2ccc(C(=O)NC3CCN(CC4CCCCC4)C3)cc2)cc1 (configuration not stated) | 8.4%
12 | Cc1cc(-c2ccc(Cl)cc2)c2c(N)c(C(=O)Nc3ccc(F)cc3)sc2n1 | 2.96%
13 | CC(C)(CNC(=O)[C@@H]1CCCCN1)c1nc(-c2ccc(Cl)c(O)c2)c(-c2ccncc2)[nH]1 | 1.56%
14 | CC(Oc1ccc(Cl)cc1)C(=O)NCCC1CCN(CCCCCNC(=O)/C=C/c2ccc(Cl)c(Cl)c2)CC1 (configuration not stated) | 6.99%
15 | CCC1N=C(N)N=C(N)N1OCc1ccc(Cl)c(Cl)c1 (configuration not stated) | 6.43%
16 | Cc1cccc2nc(-c3cccc(-c4ccc(NC(=O)Cc5ccon5)cc4)c3)[nH]c12 | 2.7%
17 | O=C(Nc1cccc(CN2CCCN(CC3CCCCC3)CC2)c1)c1cc2ccccc2s1 | 3.85%
18 | COc1ccc(NC(=O)Nc2cccc(-c3ccc(-c4nc5cccc(C)c5[nH]4)s3)c2)cc1 | 2.02%
19 | O=C(O)c1ccc2c(c1)N(C(=O)CNCc1ccc(F)cc1)CC(=O)N2CCCc1ccccc1 | 0.75%

Row | Compound | IFI
20 | COc1ccccc1CCNc1nc(C)cc(N[C@@H](Cc2ccccc2)C(=O)NCc2cccs2)n1 | 9.76%
21 | CCCCCCN1CCC(NCc2cccc(C(F)(F)F)c2)CC1 | 3.4%
22 | OC1(c2ccccc2)c2cc(Cl)ccc2OC1c1nc2c(Cl)ccc(Cl)c2o1 (configuration not stated) | 1.48%
23 | CCN1CCN(Cc2ccc(-c3ccc(NS(=O)(=O)c4cccc5cccnc45)cc3)cc2)CC1 | 7.44%
24 | O=C(Nc1cccc(CN2CCCN(Cc3ccc(O)cc3)CC2)c1)c1ccc(Cl)c(Cl)c1 | 5.96%
25 | O=C(/C=C/c1ccc(Cl)c(Cl)c1)NCCCN1CCC(c2c[nH]c3ccccc23)CC1 | 7.64%
26 | Cc1cc(CNCCCCCCNCc2cccc([N+](=O)[O-])c2)ccc1O | 0.75%
27 | Cc1cc(=O)c(C2CCC(c3ccc(Cl)cc3)CC2)c(C)[nH]1 (configuration not stated) | -0%
28 | Cc1ccccc1C1CCN(C2CCC(NC(=O)/C=C/c3ccc(F)c(F)c3)CC2)CC1 (configuration not stated) | -0%
29 | Cc1cccc2nc(-c3cccc(-c4ccc(CNCCNC(=O)c5ccnn5C)cc4)c3)[nH]c12 | 5%
30 | COc1c(O)cc2oc(-c3ccc(O)cc3)cc(=O)c2c1O | 1.49%
31 | O=C(c1cccc(-c2cccc(-c3nc4cc(F)ccc4[nH]3)c2)c1)N1CCCCC1CN1CCC(O)C1 (configuration not stated) | 4.42%
32 | O=C(Nc1cncc(NC(=O)c2ccc(Cl)c(Cl)c2)c1)c1ccc(Cl)c(Cl)c1 | 1.44%
33 | O=C(C=Cc1ccc(Cl)c(Cl)c1)NCCCCCN1CCCC(CCCNS(=O)(=O)c2ccc(Br)cc2)C1 (configuration not stated) | 10.1%
34 | CCCCCCCCNCc1c(O)ccc2ccccc12 | 7.69%
35 | Cc1cc(-c2ccc(NC(=O)Nc3ccc4nccc(N5CCN(C)CC5)c4c3)cc2C)cc(C)n1 | 2.21%
36 | O=C1Nc2ccc3ncccc3c2/C1=C/Nc1ccc(N2CCN(CCO)CC2)cc1 | 12.7%
37 | CCCCCn1c(Sc2ccc(C#N)c([N+](=O)[O-])c2)nnc1-c1cccs1 | 4.2%
38 | Cc1cc(SC(C)(C)C)cc2c(Cl)c(C(N)=O)cnc12 | 32.5%

Row | Compound | IFI
39 | O=C(NCCCCN1CCN(c2cccc3c2OCCO3)CC1)c1ccc(NC(=O)c2cc(Cl)cc(Cl)c2)cc1 | 5.31%
40 | CCCCC1(c2ccc(F)cc2)NC(=O)N(CC(=O)c2cc(C)n(Cc3ccco3)c2C)C1=O (configuration not stated) | 16.2%
41 | COc1ccc2nccc([C@@H](O)CN3CCC(NCc4ccc5scnc5c4)CC3)c2c1 | 0.74%
42 | Clc1ccc(CNc2ccnc(NCc3cccnc3N3CCCC3)n2)c(Cl)c1 | 16.7%
43 | CC(C)(CNCc1cccc(Oc2ccccc2)c1)c1nc(-c2ccnc(N)n2)c(-c2ccc(Cl)c(O)c2)[nH]1 | 10.5%
44 | COc1ccc(C(=O)N2CCC(CN3CCOC(c4ccccc4)(c4ccccc4)C3)CC2)cc1 | 3.85%
45 | N=C1N=C(N)NC2(CCCCC2)N1OCC1CCCCC1 | 4.41%
46 | CCOc1ccc(-c2nonc2NC(=O)c2ccc(Cl)cc2)cc1OCC | -0%
47 | Cc1cc(-c2ccc(NC(=O)N3CCc4cc(Cl)c(N5CCN(C)CC5)cc43)cc2)ccc1C#N | 11.4%
48 | NCc1ccc(CNCc2cccc(-c3ccc(-c4nc5ccccc5[nH]4)cc3)c2)cc1 | 8.82%
49 | CCCCCCCN(Cc1ccc(OC(C)(C)C(=O)OCC)cc1)C(=O)Cc1ccc(F)cc1F | 3.65%
50 | COc1ccc(CNC2Cc3ccccc3C2)cc1-c1ccc(S(=O)(=O)NCc2ccccc2)s1 | 12.3%
51 | CCCCCCNC(=O)c1nn(CCN2CCC(N3CCCC3)CC2)cc1-c1ccc(Cl)c(Cl)c1 | 6.71%
52 | Cc1ccc(C2CCN(CCCCNC(=O)c3ccc(NC(=O)c4ccc(Cl)cc4)cc3)CC2)c(OCC(F)(F)F)c1 | 4.51%
53 | CCc1c[nH]c2c(N3CCCCS3(=O)=O)cc(C(=O)N[C@@H](Cc3ccccc3)[C@H](O)CNCc3cccc(OC)c3)cc12 | 2.86%
54 | CS(=O)(=O)c1ccc2[nH]c(-c3cc(-c4cccc(F)c4)cnc3N)nc2c1 | 6.45%
55 | COc1ccc(C2CCN(C#N)C2)cc1OC1CCCC1 (configuration not stated) | 11.3%
56 | CCc1ccc(OCCCON2C(=N)N=C(N)NC2(C)C)cc1 | 6.29%
57 | COc1ccccc1OCCN(CC(O)COc1cccc2[nH]c3ccccc3c12)CC(O)COc1cccc2[nH]c3ccccc3c12 (configuration not stated) | 3.1%
